{"source": "PubChem BioAssay AID504333", "about": "(National Center for Advancing Translational Sciences (NCATS), 2011)", "note": "Screen size: about 360,000 compounds; about 16,000 (4.4%) were called active. This list was built around the results that the source calls inconclusive (neither active nor inactive); the mix of calls is not that of the screen. Calls come from the whole dose curve; as a rule, active = well fitted inhibition curve with a large enough effect; inconclusive = small, poorly fitted or top-dose-only effect; inactive = no such curve, though single readings can be large or run the other way. Potencies beside an inconclusive call are fits to weak or partial responses and may not hold up. % is set by controls: 0 for no effect and ±100 for the full control effect; potency is the fitted concentration of half-maximal effect; tags give direction and shape of the fitted curve."}
{"biological_target": "Bromodomain adjacent to zinc finger domain protein 2B (Homo sapiens) (UniProt Q9UIF8)", "sequence (Q9UIF8 whole entry, looked up, the tested form may be a part)": "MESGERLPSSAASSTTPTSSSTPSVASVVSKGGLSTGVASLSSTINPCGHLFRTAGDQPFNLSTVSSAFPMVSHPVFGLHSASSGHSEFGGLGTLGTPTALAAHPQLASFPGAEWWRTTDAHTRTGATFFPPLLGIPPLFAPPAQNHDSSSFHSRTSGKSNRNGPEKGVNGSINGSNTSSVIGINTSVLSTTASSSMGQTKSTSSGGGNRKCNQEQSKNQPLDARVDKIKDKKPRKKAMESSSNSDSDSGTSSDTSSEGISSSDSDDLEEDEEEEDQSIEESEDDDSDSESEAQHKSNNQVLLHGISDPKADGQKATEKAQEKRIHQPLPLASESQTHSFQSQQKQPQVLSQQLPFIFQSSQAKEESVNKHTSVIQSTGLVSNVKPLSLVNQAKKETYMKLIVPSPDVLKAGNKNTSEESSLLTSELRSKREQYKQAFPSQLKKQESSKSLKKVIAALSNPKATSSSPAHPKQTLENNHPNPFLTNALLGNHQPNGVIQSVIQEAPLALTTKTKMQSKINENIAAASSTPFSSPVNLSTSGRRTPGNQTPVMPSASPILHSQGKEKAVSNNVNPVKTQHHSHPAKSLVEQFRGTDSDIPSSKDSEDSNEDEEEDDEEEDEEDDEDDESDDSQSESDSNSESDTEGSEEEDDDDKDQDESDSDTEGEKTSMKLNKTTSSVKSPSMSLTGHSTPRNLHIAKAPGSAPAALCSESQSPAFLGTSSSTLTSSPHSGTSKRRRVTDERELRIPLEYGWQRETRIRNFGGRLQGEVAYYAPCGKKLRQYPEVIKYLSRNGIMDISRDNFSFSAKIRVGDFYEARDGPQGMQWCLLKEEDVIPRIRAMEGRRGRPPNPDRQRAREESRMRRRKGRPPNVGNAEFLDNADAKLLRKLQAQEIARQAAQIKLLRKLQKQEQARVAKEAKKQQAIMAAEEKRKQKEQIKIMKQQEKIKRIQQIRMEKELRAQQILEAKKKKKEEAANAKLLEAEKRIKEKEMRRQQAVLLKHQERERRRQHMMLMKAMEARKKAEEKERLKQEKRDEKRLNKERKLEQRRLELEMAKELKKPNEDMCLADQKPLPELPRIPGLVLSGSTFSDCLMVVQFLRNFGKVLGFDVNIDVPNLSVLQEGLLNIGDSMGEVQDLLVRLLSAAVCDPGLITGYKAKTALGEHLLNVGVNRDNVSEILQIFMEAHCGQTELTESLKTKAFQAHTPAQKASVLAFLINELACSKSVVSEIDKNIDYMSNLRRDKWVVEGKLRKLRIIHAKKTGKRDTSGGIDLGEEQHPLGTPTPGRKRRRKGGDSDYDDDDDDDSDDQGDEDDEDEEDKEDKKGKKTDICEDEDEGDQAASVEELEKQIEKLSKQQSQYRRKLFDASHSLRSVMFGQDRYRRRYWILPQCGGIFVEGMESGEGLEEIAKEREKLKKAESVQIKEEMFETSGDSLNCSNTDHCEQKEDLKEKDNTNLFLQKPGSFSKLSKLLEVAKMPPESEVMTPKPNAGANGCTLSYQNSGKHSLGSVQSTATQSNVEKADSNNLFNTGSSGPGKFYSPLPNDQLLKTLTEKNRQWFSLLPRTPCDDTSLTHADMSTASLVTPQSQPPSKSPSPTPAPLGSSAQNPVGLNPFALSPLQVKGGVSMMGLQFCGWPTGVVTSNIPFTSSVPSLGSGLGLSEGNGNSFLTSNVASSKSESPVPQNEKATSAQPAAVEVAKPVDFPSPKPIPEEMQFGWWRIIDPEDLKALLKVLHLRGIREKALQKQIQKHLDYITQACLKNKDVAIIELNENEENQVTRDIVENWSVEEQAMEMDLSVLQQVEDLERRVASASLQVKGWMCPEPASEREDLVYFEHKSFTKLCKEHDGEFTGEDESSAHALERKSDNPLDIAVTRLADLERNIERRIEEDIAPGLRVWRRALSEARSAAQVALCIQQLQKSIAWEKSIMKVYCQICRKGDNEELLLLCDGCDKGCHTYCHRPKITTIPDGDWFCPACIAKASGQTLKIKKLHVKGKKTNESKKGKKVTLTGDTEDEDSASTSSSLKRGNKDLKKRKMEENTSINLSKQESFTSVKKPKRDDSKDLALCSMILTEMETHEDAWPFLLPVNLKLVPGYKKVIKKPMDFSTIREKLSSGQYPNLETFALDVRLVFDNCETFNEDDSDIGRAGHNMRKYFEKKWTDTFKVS", "assay": "qHTS Assay for Inhibitors of BAZ2B; note: nearly all actives have a fitted effect of over 60% in size", "settings": "AlphaScreen BAZ2B-H3K14Ac peptide displacement; activity change, negative = inhibition: at 114 µM (top of the series)", "method_in_brief": "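Protein-peptide AlphaScreen: BAZ2B 50 nM, b-H3K14Ac 50 nM, 1x PBS pH 7.4 + 0.01% Tween-20. Preincubation 30 min RT; cpd 30 min RT (top 110 uM); beads 20 min RT, light-protected.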"}
{"smiles": "COc1cccc(CN2CC(C(=O)N(C)Cc3[nH]c4ccccc4c3C)CCC2=O)c1", "note": "(centres undefined)", "Potency": "inconclusive: 50.1 µM [inhibitor, partial curve]"}
{"smiles": "CC(C)(C)OC(=O)N1CCC(CC2CC(c3ccc(Cl)cc3)=NO2)(C(=O)NCC2CCCCC2)CC1", "note": "(centres undefined)", "Potency": "inconclusive: 20 µM [inhibitor, single point]"}
{"smiles": "CC(C)Oc1ccc(C2CC(=O)N(c3cccc(/C=C/C(=O)O)c3)C2=O)cc1", "note": "(centres undefined)", "Potency": "inconclusive: 89.1 µM [inhibitor, single point]"}
{"smiles": "COC(=O)C1=C(CSc2nc3c(cc2C#N)CN(C)CC3)OC(N)=C(C#N)C1c1ccc(F)cc1", "note": "(centres undefined)", "Potency": "inconclusive: 79.4 µM [inhibitor, single point]"}
{"smiles": "Cc1ccc(S(=O)(=O)NNc2ccccc2)c(C)c1", "Potency": "active: 56.2 µM"}
{"smiles": "N#CCC(=O)Nc1ccc(C(=O)Nc2cccc(S(N)(=O)=O)c2)cc1", "activity change, negative = inhibition": "inactive: -14.6%"}
{"smiles": "COc1cc(CNCc2ccc(OC)cc2OC)cc(OC)c1", "Potency": "inconclusive: 89.1 µM [inhibitor, single point]"}
{"smiles": "COc1ccc(NC(=O)Nc2ccc(Cc3ccncc3)cc2)cc1OC", "Potency": "inconclusive: 50.1 µM [inhibitor, partial curve]"}
{"smiles": "O=Nc1c2cc(-c3ccccc3)[nH]nc-2c2ccccc12", "Potency": "inconclusive: 79.4 µM [inhibitor, partial curve]"}
{"smiles": "CCc1nnc(NC(=O)CSc2nnc(-c3cccnc3)n2CCc2ccccc2)s1", "Potency": "inconclusive: 100 µM [inhibitor, single point]"}
{"smiles": "CCOc1ccccc1C(=O)NCC(=O)N(C)Cc1cccnc1", "activity change, negative = inhibition": "inactive: -4.76%"}
{"smiles": "COc1ccccc1-c1c(C(F)(F)F)oc2c(CN3CCCCC3C)c(O)ccc2c1=O", "note": "(centres undefined)", "activity change, negative = inhibition": "inactive: -1.33%"}
{"smiles": "CN(CC(=O)Nc1ccc(F)cc1)CC(=O)N1CCCCCC1", "activity change, negative = inhibition": "inactive: -4.71%"}
{"smiles": "COC(=O)c1ccc(C(=O)OC)c(-n2c(=O)c3ccccc3c3ccccc3c2=O)c1", "Potency": "inconclusive: 50.1 µM [inhibitor, partial curve]"}
{"smiles": "COc1ccc(-c2nc(S(=O)(=O)c3ccc(Cl)cc3)c(N3CCCCCC3)o2)cc1", "activity change, negative = inhibition": "inactive: -33.5%"}
{"smiles": "CCCc1nn2c(=O)cc(CSCC(=O)Nc3ccccc3OC)nc2s1", "Potency": "inconclusive: 79.4 µM [inhibitor, single point]"}
{"smiles": "Cc1[nH]c2ccc(C(=O)OC(C)C(=O)NC3(C#N)CCCCC3)cc2c1C", "note": "(centres undefined)", "Potency": "active: 50.1 µM"}
{"smiles": "CCOc1cc(C2C(C(N)=O)=C(C)Nc3ncnn32)cc(Br)c1O", "note": "(centres undefined)", "activity change, negative = inhibition": "inactive: -12.3%"}
{"smiles": "CSc1ccc(/C=N/N2CCN(Cc3ccccc3Cl)CC2)cc1", "Potency": "active: 25.1 µM"}
{"smiles": "COc1ccc(OC)c(NC(=O)CSc2sc3c(O)cc(=O)[nH]c3c2C#N)c1", "Potency": "inconclusive: 89.1 µM [inhibitor, partial curve]"}
{"smiles": "O=C(Nc1ccc(N2CCN(C(=O)c3ccco3)CC2)cc1)c1ccc([N+](=O)[O-])cc1Cl", "Potency": "inconclusive: 44.7 µM [inhibitor, partial curve]"}
{"smiles": "Cc1cccc(-n2ccnc2SCC(=O)N2CCCc3ccccc32)c1C", "Potency": "active: 50.1 µM"}
{"smiles": "O=C(O)CSc1nnc(COc2ccc(Br)cc2)n1-c1ccccc1", "activity change, negative = inhibition": "inactive: -6.77%"}
{"smiles": "CCc1cc2c(=O)c(-c3cnn(-c4ccccc4)c3)c(C(F)(F)F)oc2c(CN(C)C)c1O", "Potency": "inconclusive: 89.1 µM [inhibitor, single point]"}
{"smiles": "CC(=O)c1ccc(NC(=O)CCn2c(=O)oc3ccccc32)cc1", "Potency": "inconclusive: 89.1 µM [inhibitor, single point]"}
{"smiles": "Cc1cc(/C=C2\\SC(=S)NC2=O)c(C)n1-c1ccc(O)cc1", "Potency": "active: 39.8 µM"}
{"smiles": "COc1ccccc1N1CCN(C(=O)c2ccc(Cn3c(=O)[nH]c4ccsc4c3=O)cc2)CC1", "Potency": "inconclusive: 79.4 µM [inhibitor, single point]"}
{"smiles": "Cc1ccc(C)c(OCCCC(=O)Nc2ccc(N3CCOCC3)cc2)c1", "Potency": "inconclusive: 89.1 µM [inhibitor, single point]"}
{"smiles": "O=[N+]([O-])c1cc(Cl)cc(/C=N/Nc2nc3ccccc3s2)c1O", "Potency": "active: 6.31 µM"}
{"smiles": "Cc1cc(NC(=O)CSc2nnc(-c3ccc([N+](=O)[O-])cc3)o2)no1", "Potency": "active: 22.4 µM"}
{"smiles": "CCN(CC)c1ccc(CNc2nnnn2C)cc1", "Potency": "inconclusive: 89.1 µM [inhibitor, single point]"}
{"smiles": "Cc1nc(S(=O)(=O)N2CCOCC2)c(C#N)c(C)c1Cl", "activity change, negative = inhibition": "inactive: -24.6%"}
{"smiles": "N#CCCn1cc(C(CC(=O)c2ccc(Br)cc2)C(=O)O)c2ccccc21", "note": "(centres undefined)", "Potency": "inconclusive: 89.1 µM [inhibitor, single point]"}
{"smiles": "COc1ccc(S(=O)(=O)N2CCC(C(=O)NCC3CCCO3)CC2)cc1C", "note": "(centres undefined)", "activity change, negative = inhibition": "inactive: -6.13%"}
{"smiles": "CC1CC(C)CN(C(=O)c2ccc(-c3ccc([N+](=O)[O-])cc3)o2)C1", "note": "(centres undefined)", "Potency": "active: 35.5 µM"}
{"smiles": "Cc1cc2c(ncn2C)c(NS(=O)(=O)c2cc(Cl)ccc2Cl)c1C", "activity change, negative = inhibition": "inactive: 11.2%"}
{"smiles": "Cc1nc(N2CCOCC2)c(C#N)c(C)c1Br", "activity change, negative = inhibition": "inactive: -2.94%"}
{"smiles": "CC(=O)N1CC[n+]2c(-c3ccc([N+](=O)[O-])cc3)csc21", "Potency": "inconclusive: 79.4 µM [inhibitor, single point]"}
{"smiles": "Cc1nn(-c2ccccc2)c(C)c1S(=O)(=O)O", "Potency": "inconclusive: 79.4 µM [inhibitor, single point]"}
{"smiles": "COc1cc([N+](=O)[O-])ccc1NC(=O)NCC1CCN(Cc2ccc(Cl)cc2)CC1", "Potency": "inconclusive: 56.2 µM [inhibitor, single point]"}
{"smiles": "Oc1cccc(C2c3[nH]c4ccccc4c3CCN2Cc2ccoc2)c1", "note": "(centres undefined)", "Potency": "inconclusive: 56.2 µM [inhibitor, partial curve]"}
{"smiles": "O=C(O)c1cc2ccccc2c(N=Nc2cccnc2)c1O", "Potency": "inconclusive: 50.1 µM [inhibitor, partial curve]"}
{"smiles": "CCCC(=O)N1CCN(c2ccc([N+](=O)[O-])c(NC(C)c3ccccc3)c2)CC1", "note": "(centres undefined)", "Potency": "inconclusive: 35.5 µM [inhibitor, full curve]"}
{"smiles": "COc1cc2nc(N(CCCN(C)C)C(=O)c3ccc(C(=O)c4ccccc4)cc3)sc2cc1OC", "Potency": "inconclusive: 79.4 µM [inhibitor, single point]"}
{"smiles": "CN(CC(=O)Nc1ccc2c(c1)CCC2)CC(=O)Nc1ccccc1Br", "activity change, negative = inhibition": "inactive: 11.9%"}
{"smiles": "Fc1ccc(CN2CCN(c3ncnc4scc(-c5ccc(F)cc5)c34)CC2)cc1", "Potency": "inconclusive: 35.5 µM [inhibitor, full curve]"}
{"smiles": "O=C(COC(=O)CCc1c[nH]c2ccccc12)NCc1ccc(Cl)cc1", "Potency": "inconclusive: 89.1 µM [inhibitor, single point]"}
{"smiles": "CC1CCN(S(=O)(=O)c2ccc3c(c2)N(CC(=O)NCc2ccccc2Cl)C(=O)CS3)CC1", "activity change, negative = inhibition": "inactive: -1.93%"}
{"smiles": "O=C(Nc1ccc(-n2cccn2)cc1)C1CCCCN1Cc1cccc2c1OCO2", "note": "(centres undefined)", "Potency": "inconclusive: 79.4 µM [inhibitor, single point]"}
{"smiles": "NCCNCCNCCN", "Potency": "inconclusive: 89.1 µM [inhibitor, single point]"}
{"smiles": "Cc1cccc(NC(c2cccc(F)c2)c2ccc3ccc(C)nc3c2O)n1", "note": "(centres undefined)", "Potency": "inconclusive: 1 µM [inhibitor, full curve]"}
{"smiles": "O=C(C[n+]1cc(-c2ccc(Cl)cc2)n2c1CCC2)Nc1nc(-c2ccc(F)cc2)cs1", "Potency": "inconclusive: 39.8 µM [inhibitor, partial curve]"}
{"smiles": "Cc1ccc(CCNC(=O)c2cc3c(s2)-c2ccccc2OC3)cc1", "Potency": "inconclusive: 79.4 µM [inhibitor, single point]"}
{"smiles": "COc1cccc(CN2CCN(Cc3cc4ccccc4[nH]3)CC2CCO)c1", "note": "(centres undefined)", "Potency": "inconclusive: 70.8 µM [inhibitor, single point]"}
{"smiles": "O=C(O)CCC(=O)N1CCc2cc(S(=O)(=O)N(CCc3ccccc3)Cc3ccccc3)ccc21", "Potency": "inconclusive: 79.4 µM [inhibitor, single point]"}
{"smiles": "OC(COC1CCCCC1)CN1CCCCC1", "note": "(centres undefined)", "Potency": "active: 56.2 µM"}
{"smiles": "CC(=O)Nc1ccc(S(=O)(=O)Nc2nc3ccccc3nc2-n2ccc(=NC(=O)c3ccccc3)cc2)cc1", "Potency": "inconclusive: 50.1 µM [inhibitor, partial curve]"}
{"smiles": "O=C(O)CCCCCNC(=O)CCn1cnc2ccccc2c1=O", "activity change, negative = inhibition": "inactive: -31.2%"}
{"smiles": "COc1cccc(CN2CCN(C(=O)c3ccco3)CC2)c1", "Potency": "active: 28.2 µM"}
{"smiles": "CC1CCN(CC(=O)N2CCCc3c2c(=O)oc2ccc(OCc4ccccc4)cc32)CC1", "Potency": "inconclusive: 79.4 µM [inhibitor, single point]"}
{"smiles": "CSc1ccccc1OCc1cc(C(=O)N2CCC(c3ccncc3)CC2)no1", "Potency": "inconclusive: 50.1 µM [inhibitor, partial curve]"}
{"smiles": "CN1CCN(S(=O)(=O)c2ccc(NC(=S)NC(=O)c3ccccc3)cc2)CC1", "Potency": "inconclusive: 100 µM [inhibitor, single point]"}
{"smiles": "CCSc1ccc([C@@H]2[C@@H]3C(=O)N(CC)C(=O)[C@@H]3[C@]3(C(=O)OC)CCCCN23)cc1OC", "Potency": "inconclusive: 89.1 µM [inhibitor, single point]"}
{"smiles": "CCn1cc(C(=O)O)c(=O)c2cc(F)c(N3CCN(C(=S)NC(=O)c4ccc(OC)cc4)CC3)cc21", "Potency": "inconclusive: 39.8 µM [inhibitor, partial curve]"}
{"smiles": "CC1=C(C(=O)OCc2ccccc2)C(c2ccc(N(C)C)cc2)NC(=O)N1", "note": "(centres undefined)", "Potency": "inconclusive: 31.6 µM [inhibitor, full curve, poor fit]"}
{"smiles": "CC(C)=C1C(=O)NN(c2ccc(F)c(Cl)c2)C1=O", "Potency": "inconclusive: 89.1 µM [inhibitor, single point]"}
{"smiles": "COc1ccc(C(=O)N2CCCC(Nc3ccc(C)c(C)c3)C2)cc1", "note": "(centres undefined)", "Potency": "inconclusive: 39.8 µM [inhibitor, partial curve]"}
{"smiles": "Cc1ccc(-n2nc3cc(C)c(N)cc3n2)cc1", "Potency": "inconclusive: 89.1 µM [inhibitor, single point]"}
{"smiles": "CCN(CC)c1ccc(NC(=O)COc2ccccc2C)cc1S(=O)(=O)Nc1ccccc1OC", "activity change, negative = inhibition": "inactive: -7.06%"}
